# Some of the results follow.
# B1: SSL (Salmo salar) (protein)
# chain: TGAKGAEEGVVPAETRNQCPTGWFQFGSRCFMFVETARSWPLAERHCVSLGANLASVHSSADDQFLQAIAGCKTGAFSTTWIGGFDAVQDRLWFWSDGSEFDYQNWAKGEPNNSGGREPCIVINWGDEYRWNDIKCGNSFPSVCSKRICEIQKN
# Assays:
# Assay in all cases: glycan array binding signal (z-score within array); higher = stronger binding
# Conditions in all cases: glycan notation: IUPAC condensed, linker removed
# [1] = target: Neu5Ac(a2-3)Gal(b1-4)[Fuc(a1-3)]GlcNAc(b1-3)GalNAc
# Summary of the method: (§1)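 The binding signal is a Z-score computed within each array and averaged over linkers. Arrays of the same protein sequence at different concentrations or buffers were also averaged together. Data originate from 3228 arrays in the Consortium for Functional Glycomics database, kept only where the protein sequence was available.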
# [2] = target: Neu5Ac(a2-3)Gal(b1-4)[Fuc(a1-3)]GlcNAc(b1-6)[Gal(b1-3)]GalNAc
# Summary of the method: as §1
# [3] = target: Neu5Ac(a2-3)Gal(b1-4)[Fuc(a1-3)]GlcNAc(b1-6)[Neu5Ac(a2-3)Gal(b1-3)]GalNAc
# Summary of the method: as §1
# [4] = target: Neu5Ac(a2-3)Gal(b1-4)[Fuc(a1-3)]GlcNAc6S
# Summary of the method: as §1
# [5] = target: Neu5Ac(a2-3)Gal6S(b1-4)GlcNAc
# Summary of the method: as §1
# [6] = target: Neu5Ac(a2-3)Gal6S(b1-4)[Fuc(a1-3)]GlcNAc
# Summary of the method: as §1
# Neu5Ac(a2-3)GalNAc = target: Neu5Ac(a2-3)GalNAc
# Summary of the method: as §1
# [7] = target: Neu5Ac(a2-3)GalNAc(b1-4)GlcNAc
# Summary of the method: as §1
# [8] = target: Neu5Ac(a2-3)[GalNAc(b1-4)]Gal(b1-4)Glc
# Summary of the method: as §1
# [9] = target: Neu5Ac(a2-3)[GalNAc(b1-4)]Gal(b1-4)GlcNAc
# Summary of the method: as §1
# [10] = target: Neu5Ac(a2-3)[GalNAc(b1-4)]Gal(b1-4)GlcNAc(b1-3)GalNAc
# Summary of the method: as §1
# [11] = target: Neu5Ac(a2-3)[Neu5Ac(a2-6)]GalNAc
# Summary of the method: as §1
# Neu5Ac(a2-6)Gal = target: Neu5Ac(a2-6)Gal
# Summary of the method: as §1
# Neu5Ac(a2-6)Gal(b1-4)Glc = target: Neu5Ac(a2-6)Gal(b1-4)Glc
# Summary of the method: as §1
# [12] = target: Neu5Ac(a2-6)Gal(b1-4)GlcNAc
# Summary of the method: as §1
# [13] = target: Neu5Ac(a2-6)Gal(b1-4)GlcNAc(b1-2)Man(a1-3)Man(b1-4)GlcNAc(b1-4)GlcNAc
# Summary of the method: as §1
# [14] = target: Neu5Ac(a2-6)Gal(b1-4)GlcNAc(b1-2)Man(a1-3)[Gal(b1-4)GlcNAc(b1-2)Man(a1-6)]Man(b1-4)GlcNAc(b1-4)GlcNAc
# Summary of the method: as §1
# [15] = target: Neu5Ac(a2-6)Gal(b1-4)GlcNAc(b1-2)Man(a1-3)[GlcNAc(b1-2)Man(a1-6)]Man(b1-4)GlcNAc(b1-4)GlcNAc
# Summary of the method: as §1
# [16] = target: Neu5Ac(a2-6)Gal(b1-4)GlcNAc(b1-2)Man(a1-3)[GlcNAc(b1-2)Man(b1-4)GlcNAc(b1-2)Man(a1-6)]Man(b1-4)GlcNAc(b1-4)GlcNAc
# Summary of the method: as §1
# [17] = target: Neu5Ac(a2-6)Gal(b1-4)GlcNAc(b1-2)Man(a1-3)[Man(a1-6)]Man(b1-4)GlcNAc(b1-4)GlcNAc
# Summary of the method: as §1
# [18] = target: Neu5Ac(a2-6)Gal(b1-4)GlcNAc(b1-2)Man(a1-3)[Neu5Ac(a2-6)Gal(b1-4)GlcNAc(b1-2)Man(a1-6)]Man(b1-4)GlcNAc(b1-4)GlcNAc
# Summary of the method: as §1
# [19] = target: Neu5Ac(a2-6)Gal(b1-4)GlcNAc(b1-2)Man(a1-6)Man(b1-4)GlcNAc(b1-4)GlcNAc
# Summary of the method: as §1
# [20] = target: Neu5Ac(a2-6)Gal(b1-4)GlcNAc(b1-2)Man(a1-6)[Gal(b1-4)GlcNAc(b1-2)Man(a1-3)]Man(b1-4)GlcNAc(b1-4)GlcNAc
# Summary of the method: as §1
# [21] = target: Neu5Ac(a2-6)Gal(b1-4)GlcNAc(b1-2)Man(a1-6)[GlcNAc(b1-2)Man(a1-3)]Man(b1-4)GlcNAc(b1-4)GlcNAc
# Summary of the method: as §1
# [22] = target: Neu5Ac(a2-6)Gal(b1-4)GlcNAc(b1-2)Man(a1-6)[Man(a1-3)]Man(b1-4)GlcNAc(b1-4)GlcNAc
# Summary of the method: as §1
# [23] = target: Neu5Ac(a2-6)Gal(b1-4)GlcNAc(b1-3)Gal(b1-3)GlcNAc
# Summary of the method: as §1
# [24] = target: Neu5Ac(a2-6)Gal(b1-4)GlcNAc(b1-3)Gal(b1-4)GlcNAc
# Summary of the method: as §1
# [25] = target: Neu5Ac(a2-6)Gal(b1-4)GlcNAc(b1-3)Gal(b1-4)GlcNAc(b1-3)Gal(b1-4)GlcNAc
# Summary of the method: as §1
# [26] = target: Neu5Ac(a2-6)Gal(b1-4)GlcNAc(b1-3)Gal(b1-4)[Fuc(a1-3)]GlcNAc(b1-3)Gal(b1-4)[Fuc(a1-3)]GlcNAc
# Summary of the method: as §1
# [27] = target: Neu5Ac(a2-6)Gal(b1-4)GlcNAc(b1-3)GalNAc
# Summary of the method: as §1
# [28] = target: Neu5Ac(a2-6)Gal(b1-4)GlcNAc6S
# Summary of the method: as §1
# Neu5Ac(a2-6)GalNAc = target: Neu5Ac(a2-6)GalNAc
# Summary of the method: as §1
# [29] = target: Neu5Ac(a2-6)GalNAc(b1-4)GlcNAc
# Summary of the method: as §1
# [30] = target: Neu5Ac(a2-6)GlcNAc(b1-4)GlcNAc
# Summary of the method: as §1
# [31] = target: Neu5Ac(a2-6)GlcNAc(b1-4)GlcNAc(b1-4)GlcNAc
# Summary of the method: as §1
# Neu5Ac(a2-8)Neu5Ac = target: Neu5Ac(a2-8)Neu5Ac
# Summary of the method: as §1
# [32] = target: Neu5Ac(a2-8)Neu5Ac(a2-3)Gal(b1-4)Glc
# Summary of the method: as §1
# [33] = target: Neu5Ac(a2-8)Neu5Ac(a2-3)[GalNAc(b1-4)]Gal(b1-4)Glc
# Summary of the method: as §1
# [34] = target: Neu5Ac(a2-8)Neu5Ac(a2-8)Neu5Ac
# Summary of the method: as §1
# [35] = target: Neu5Ac(a2-8)Neu5Ac(a2-8)Neu5Ac(a2-3)Gal(b1-4)Glc
# Summary of the method: as §1
# [36] = target: Neu5Ac(a2-8)Neu5Ac(a2-8)Neu5Ac(a2-3)[GalNAc(b1-4)]Gal(b1-4)Glc
# Summary of the method: as §1
# [37] = target: Neu5Ac(a2-8)Neu5Ac(a2-8)Neu5Ac(a2-8)Neu5Ac(a2-3)[GalNAc(b1-4)]Gal(b1-4)Glc
# Summary of the method: as §1
# [38] = target: Neu5Ac(b2-6)Gal(b1-4)GlcNAc
# Summary of the method: as §1
# Neu5Ac(b2-6)GalNAc = target: Neu5Ac(b2-6)GalNAc
# Summary of the method: as §1
# [39] = target: Neu5Ac9Ac(a2-3)Gal(b1-3)GlcNAc
# Summary of the method: as §1
# [40] = target: Neu5Ac9Ac(a2-3)Gal(b1-4)GlcNAc
# Summary of the method: as §1
# [41] = target: Neu5Ac9Ac(a2-6)Gal(b1-4)GlcNAc
# Summary of the method: as §1
# [42] = target: Neu5Gc(a2-3)Gal(b1-3)GlcNAc
# Summary of the method: as §1
# [43] = target: Neu5Gc(a2-3)Gal(b1-3)[Fuc(a1-4)]GlcNAc
# Summary of the method: as §1
# Neu5Gc(a2-3)Gal(b1-4)Glc = target: Neu5Gc(a2-3)Gal(b1-4)Glc
# Summary of the method: as §1
# [44] = target: Neu5Gc(a2-3)Gal(b1-4)GlcNAc
# Summary of the method: as §1
# [45] = target: Neu5Gc(a2-3)Gal(b1-4)[Fuc(a1-3)]GlcNAc
# Summary of the method: as §1
# [46] = target: Neu5Gc(a2-6)Gal(b1-4)GlcNAc
# Summary of the method: as §1
# Neu5Gc(a2-6)GalNAc = target: Neu5Gc(a2-6)GalNAc
# Summary of the method: as §1
# [47] = target: Neu5Gc(b2-6)Gal(b1-4)GlcNAc
# Summary of the method: as §1
binder,measurement,setting,value
B1,glycan array binding signal (z-score),[1],-0.156
same,glycan array binding signal (z-score),[2],-0.155
same,glycan array binding signal (z-score),[3],-0.135
same,glycan array binding signal (z-score),[4],-0.184
same,glycan array binding signal (z-score),[5],-0.179
same,glycan array binding signal (z-score),[6],-0.176
same,glycan array binding signal (z-score),Neu5Ac(a2-3)GalNAc,-0.17
same,glycan array binding signal (z-score),[7],-0.178
same,glycan array binding signal (z-score),[8],-0.172
same,glycan array binding signal (z-score),[9],-0.172
same,glycan array binding signal (z-score),[10],-0.119
same,glycan array binding signal (z-score),[11],-0.182
same,glycan array binding signal (z-score),Neu5Ac(a2-6)Gal,-0.144
same,glycan array binding signal (z-score),Neu5Ac(a2-6)Gal(b1-4)Glc,-0.158
same,glycan array binding signal (z-score),[12],-0.172
same,glycan array binding signal (z-score),[13],-0.178
same,glycan array binding signal (z-score),[14],-0.177
same,glycan array binding signal (z-score),[15],-0.18
same,glycan array binding signal (z-score),[16],-0.182
same,glycan array binding signal (z-score),[17],-0.181
same,glycan array binding signal (z-score),[18],-0.173
same,glycan array binding signal (z-score),[19],-0.176
same,glycan array binding signal (z-score),[20],-0.176
same,glycan array binding signal (z-score),[21],-0.176
same,glycan array binding signal (z-score),[22],-0.177
same,glycan array binding signal (z-score),[23],-0.171
same,glycan array binding signal (z-score),[24],-0.179
same,glycan array binding signal (z-score),[25],-0.182
same,glycan array binding signal (z-score),[26],-0.144
same,glycan array binding signal (z-score),[27],-0.162
same,glycan array binding signal (z-score),[28],-0.181
same,glycan array binding signal (z-score),Neu5Ac(a2-6)GalNAc,-0.18
same,glycan array binding signal (z-score),[29],-0.18
same,glycan array binding signal (z-score),[30],0.202
same,glycan array binding signal (z-score),[31],-0.186
same,glycan array binding signal (z-score),Neu5Ac(a2-8)Neu5Ac,-0.18
same,glycan array binding signal (z-score),[32],-0.177
same,glycan array binding signal (z-score),[33],-0.162
same,glycan array binding signal (z-score),[34],-0.181
same,glycan array binding signal (z-score),[35],-0.179
same,glycan array binding signal (z-score),[36],-0.181
same,glycan array binding signal (z-score),[37],-0.176
same,glycan array binding signal (z-score),[38],-0.18
same,glycan array binding signal (z-score),Neu5Ac(b2-6)GalNAc,-0.177
same,glycan array binding signal (z-score),[39],-0.178
same,glycan array binding signal (z-score),[40],-0.178
same,glycan array binding signal (z-score),[41],-0.185
same,glycan array binding signal (z-score),[42],-0.152
same,glycan array binding signal (z-score),[43],-0.176
same,glycan array binding signal (z-score),Neu5Gc(a2-3)Gal(b1-4)Glc,-0.17
same,glycan array binding signal (z-score),[44],-0.171
same,glycan array binding signal (z-score),[45],-0.154
same,glycan array binding signal (z-score),[46],-0.172
same,glycan array binding signal (z-score),Neu5Gc(a2-6)GalNAc,-0.166
same,glycan array binding signal (z-score),[47],-0.172

# From the supplement of paper PMC8728848
